Values of other authors as cited in publication PMC11006913.
The list shows a part of the results.

Target: HOXD13 R306W (Homo sapiens) (UniProt P35453)
Conditions: PBM; conditions not shown; double strand, one strand shown; scale: upbm affinity estimate (log intensity, higher = more binding, comparable within an allelic series)
For GATAATCC [8-mer GATAATCC], the binding signal is listed as 10.5. In the case of AATAAAAA [8-mer AATAAAAA], the binding signal is given as 11.6. In the case of ACATGTCA [8-mer ACATGTCA], the binding signal is given as 10.3. In the case of AATTTATG [8-mer AATTTATG], the binding signal is listed as 11.5.

Target: HOXD13 S316C (Homo sapiens) (UniProt P35453)
Conditions: PBM; conditions not shown; double strand, one strand shown; scale: upbm affinity estimate (log intensity, higher = more binding, comparable within an allelic series)
In the case of AGTTAATA [8-mer AGTTAATA], the binding signal is listed as 12.1. For ACATGTCA [8-mer ACATGTCA], the binding signal is listed as 10.6. For AATTTATG [8-mer AATTTATG], the binding signal is listed as 12.1.

Target: ISX (Homo sapiens) (UniProt Q2M1V0)
Sequence of UniProt Q2M1V0 (Q2M1V0 69-154): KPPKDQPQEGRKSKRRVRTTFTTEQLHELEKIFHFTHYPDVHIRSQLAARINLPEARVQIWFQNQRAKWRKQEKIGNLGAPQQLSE
Conditions: PBM; conditions not shown; double strand, one strand shown; scale: upbm affinity estimate (log intensity, higher = more binding, comparable within an allelic series)
In the case of AATTGTTG [8-mer AATTGTTG], the binding signal is listed as 12.6. In the case of AATTCTAA [8-mer AATTCTAA], the binding signal is listed as 11.7. For CCATAATC [8-mer CCATAATC], the binding signal is listed as 12. For ACAATAAC [8-mer ACAATAAC], the binding signal is listed as 11.5. For AAATATTG [8-mer AAATATTG], the binding signal is listed as 11.5. For AGTCGTTA [8-mer AGTCGTTA], the binding signal is listed as 11.1. For AATGAGAT [8-mer AATGAGAT], the binding signal is listed as 11.9. For CGTGATAA [8-mer CGTGATAA], the binding signal is given as 11.2. In the case of TAACAACA [8-mer TAACAACA], the binding signal is given as 11. In the case of ACTTATTG [8-mer ACTTATTG], the binding signal is given as 12.1. In the case of ATTACTCC [8-mer ATTACTCC], the binding signal is given as 12.2. For GTTACTTA [8-mer GTTACTTA], the binding signal is listed as 11.4. For AGATTGGG [8-mer AGATTGGG], the binding signal is listed as 11.1. In the case of CACATTAA [8-mer CACATTAA], the binding signal is given as 12.7. For GTCAATGA [8-mer GTCAATGA], the binding signal is listed as 11.2. For GAATCATC [8-mer GAATCATC], the binding signal is listed as 10.8. In the case of CTATCAAA [8-mer CTATCAAA], the binding signal is given as 10.8. In the case of AATTTCTC [8-mer AATTTCTC], the binding signal is given as 11.8. In the case of AAAATCAA [8-mer AAAATCAA], the binding signal is given as 11.1. For AATGTAGC [8-mer AATGTAGC], the binding signal is given as 11. In the case of GATAACTA [8-mer GATAACTA], the binding signal is given as 11.7. For GCTATTTA [8-mer GCTATTTA], the binding signal is given as 11.9. For ATATCGAT [8-mer ATATCGAT], the binding signal is given as 10.7. In the case of CCATATAA [8-mer CCATATAA], the binding signal is listed as 11. In the case of CAATAGGG [8-mer CAATAGGG], the binding signal is listed as 10.6. For AATGATCG [8-mer AATGATCG], the binding signal is listed as 11.3. In the case of TGCTATAA [8-mer TGCTATAA], the binding signal is listed as 10.9. For TAAATGTA [8-mer TAAATGTA], the binding signal is listed as 11.5. In the case of AATGAGTC [8-mer AATGAGTC], the binding signal is listed as 11.7. For GACATTAA [8-mer GACATTAA], the binding signal is given as 12.5. For AATAATGG [8-mer AATAATGG], the binding signal is given as 12.8. In the case of TTAGATAA [8-mer TTAGATAA], the binding signal is listed as 11.6. For ATTTTTAC [8-mer ATTTTTAC], the binding signal is given as 10.8. In the case of TGTTATAA [8-mer TGTTATAA], the binding signal is listed as 11.4. In the case of TTATGCAA [8-mer TTATGCAA], the binding signal is given as 11.2.
